Measured values published in PubChem BioAssay AID624417 (National Center for Advancing Translational Sciences (NCATS), 2012).
Several values for one entry are separate records, joined by “and”; a condition that tells them apart may be missing. Equal values may be shown once. In all, about 410,000 compounds went through this assay and about 6,400 (1.6%) were called active. This list was built around the results that the source calls inconclusive (neither active nor inactive); the mix of calls is not that of the screen. The call rests on the fitted dose curve; in most records, active means well fitted inhibition curve with a large enough effect; inconclusive means small, poorly fitted or top-dose-only effect; inactive means no such curve, though single readings can be large or run the other way. A potency beside an inconclusive call is a rough fit, not a confirmed value.

These compounds were tested against Glucagon-like peptide 1 receptor (Homo sapiens) (UniProt P43220) (assay: qHTS of GLP-1 Receptor Inverse Agonists (Inhibition Mode)). Conditions: HEK293 GLP-1R CRE-luciferase, luminescence, 24 h, GLP-1R form is constitutively active; series mostly up to 38.3 µM.
UniProt P43220, sequence (P43220 whole entry, looked up): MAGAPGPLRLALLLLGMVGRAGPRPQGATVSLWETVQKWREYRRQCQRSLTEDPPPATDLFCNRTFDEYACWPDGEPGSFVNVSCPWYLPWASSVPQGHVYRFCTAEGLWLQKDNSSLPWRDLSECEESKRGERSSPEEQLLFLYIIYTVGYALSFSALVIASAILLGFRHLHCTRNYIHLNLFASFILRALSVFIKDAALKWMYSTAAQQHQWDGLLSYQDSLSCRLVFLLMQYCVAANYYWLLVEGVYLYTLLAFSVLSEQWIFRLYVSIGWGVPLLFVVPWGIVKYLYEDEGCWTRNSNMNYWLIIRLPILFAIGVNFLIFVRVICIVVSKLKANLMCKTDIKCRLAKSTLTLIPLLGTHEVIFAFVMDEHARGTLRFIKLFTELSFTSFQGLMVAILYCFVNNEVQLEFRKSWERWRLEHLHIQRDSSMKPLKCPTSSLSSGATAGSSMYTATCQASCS
In short: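 Luminescence readout: a drop in cAMP-driven luciferase signal flags inverse agonism at a constitutively active GLP-1R stably expressed in HEK293. Compound exposure lasted 24 hr at 37 deg C, 5% CO2.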
Further: nearly all actives have a fitted effect of over 55% in size.
Potency means the concentration at half of the fitted maximal effect; tags describe the fitted curve by direction and shape.

Potency, inconclusive:
CCCCNC(=O)Nc1ccc(Br)cn1 31.6 µM [inhibitor, single point], O=C(O)CN1C(=O)SC(Nc2ccc(Cl)cc2)C1=O (stereo not drawn) 17.8 µM [inhibitor, partial curve, poor fit], Cc1ccc(-n2nc3c(=O)n(CC(=O)NCCc4cccs4)nc(C)c3c2C)cc1 1.78 µM [inhibitor, partial curve, poor fit], Cc1cn(-c2cc(C(=O)Nc3ccc(C)c(NC(=O)C(=O)c4c[nH]c5ccccc45)c3)cc(C(F)(F)F)c2)cn1 28.2 µM [inhibitor, single point] and 31.6 µM [inhibitor, single point], O=C(CN(Cc1ccccc1)S(=O)(=O)c1ccc2c(c1)OCCO2)N/N=C/c1cccc(Br)c1 11.2 µM [inhibitor, partial curve, poor fit], COc1ccc(OC)c(NC(=O)c2oc3c(c2C)C(O)CC(C)(C)C3)c1 (stereo not drawn) 2.82 µM [inhibitor, full curve], CCc1ccc(/C=N/NC(=O)c2c[nH]c3ccccc23)s1 31.6 µM [inhibitor, partial curve, poor fit], O=c1[nH][nH]c2c1[C@H](CCc1cccc(Cl)c1)O[C@H](CCc1ccccc1)C2 28.2 µM [inhibitor, single point], CC1CCCN(S(=O)(=O)c2ccc3[nH]c4c(c3c2)CCCC4)C1 (stereo not drawn) 10 µM [inhibitor, partial curve, poor fit], CC1=NN(C(N)=S)C(=O)C1N=Nc1ccc([N+](=O)[O-])cc1 (stereo not drawn) 0.708 µM [inhibitor, full curve, poor fit], Cc1ccc(C)c(NC(=O)C2Cc3ccccc3CN2C(=O)OCc2ccccc2)c1 (stereo not drawn) 11.2 µM [inhibitor, partial curve, poor fit], Cc1ccc(C(C)C)c(OCC(=O)NNC(=O)C(C(C)C)N2C(=O)c3ccccc3C2=O)c1 (stereo not drawn) 28.2 µM [inhibitor, single point], COc1cccc(CN(C)C(=O)c2cccc(S(=O)(=O)N3CCN(Cc4ccccc4)CC3)c2)c1OC 8.91 µM [inhibitor, single point], O=C(O)C1CC=CCC1C(=O)Nc1ccc2c(c1)OCCO2 (stereo not drawn) 1 µM [inhibitor, full curve, poor fit], NC(=NCCc1ccc(Cl)cc1)NS(=O)(=O)c1ccc(F)cc1 20 µM [inhibitor, single point], COCCN(CC(=O)NC1CCCCC1)C(=O)/C=C/C(=O)c1ccc(OC)cc1O 11.2 µM [inhibitor, partial curve], CCCc1cc(=O)oc2c3c(c4c(c12)OC(C)(C)C=C4)OC(C)C(C)C3O (stereo not drawn) 14.1 µM [inhibitor, single point], COc1cccc(NC(=O)Cn2c(=O)c3c(ncn3Cc3ccccc3)n(Cc3ccccc3)c2=O)c1 2.24 µM [inhibitor, full curve, poor fit], COc1ccc(CNC(=O)C2CCCN(S(=O)(=O)N(C)c3ccc(F)cc3)C2)cc1OC (stereo not drawn) 3.16 µM [inhibitor, single point], C/C(=N\N=C(c1ccccc1)c1ccccc1)c1ccco1 3.55 µM [inhibitor, partial curve, poor fit], COc1ccc(S(=O)(=O)NCC(c2cccnc2)N2CCN(c3ccc(F)cc3)CC2)cc1C (stereo not drawn) 11.2 µM [inhibitor, partial curve, poor fit], COc1ccc2[nH]c3ccccc3c2c1 28.2 µM [inhibitor, single point], COc1ccc(-c2ccc(SCC(=O)NCc3ccco3)nn2)cc1 3.55 µM [inhibitor, full curve, poor fit], CCCCNC(=S)NC(=O)c1ccc(Cl)cc1Cl 11.2 µM [inhibitor, single point], O=C(c1cccc(C(F)(F)F)c1)N1CCOc2ccccc21 31.6 µM [inhibitor, single point], COc1ccc(NS(=O)(=O)c2ccc(-c3cnc(C4CC4)o3)cc2)cc1OC 0.891 µM [inhibitor, full curve, poor fit], Fc1cccc(Cl)c1CSc1nnc(CNc2ccccc2)o1 31.6 µM [inhibitor, partial curve, poor fit], Cc1ccc(CSCC(=O)N(C)CC(=O)Nc2c(Cl)cccc2Cl)cc1 10 µM [inhibitor, partial curve, poor fit], COc1ccccc1C(NC(=O)C1CCN(CCOc2ccc3ccccc3c2)CC1)c1ccccn1 (stereo not drawn) 7.94 µM [inhibitor, partial curve, poor fit], Cn1cc(C(=O)c2ccc(Cl)cc2)cc1-c1nc2ccccc2n1C 11.2 µM [inhibitor, partial curve, poor fit], Cc1c(C(=O)Nc2c(C)n(C)n(-c3ccccc3)c2=O)oc2ccc(Cl)cc12 7.94 µM [inhibitor, partial curve], COc1ccc(CN(Cc2ccco2)C(=O)COc2ccc(Cl)cc2C)cc1 10 µM [inhibitor, partial curve, poor fit]

Potency, inactive:
O=[N+]([O-])c1cc(S(=O)(=O)Nc2ccccc2)ccc1-n1nnc2ccccc21, CC(=O)NCC1(c2ccccc2)CCN(CCCC(=O)c2ccc(F)cc2)CC1, CCOC(=O)N1CCN(C(=S)NC(=O)c2cncc(Br)c2)CC1, COc1ccc(S(=O)(=O)c2c(N)n(Cc3ccco3)c3nc4ccccc4nc23)cc1, COc1ccc(-c2c(C)nc3c(-c4ccsc4)cnn3c2N)cc1, Cc1ccc(CNC(=O)CCC(=O)Nc2nnc(C3CCCCC3)s2)cc1
